Whole data set: some 33,000 sequences, median “E-score (-0.5 to 0.5)” near -0.012, cut for the highest 2% near 0.27. This is one part of the list.
The sequences below were run against T1, Vhr1 (UniProt P40522) (assay: PBM E-score (8-mer binding enrichment) (E-score (-0.5 to 0.5)); higher = stronger / more preferred TF binding; most listed sequences are background and not binding sites). Conditions: protein concentration: 200 nM; construct: GST-full length.
T1 sequence: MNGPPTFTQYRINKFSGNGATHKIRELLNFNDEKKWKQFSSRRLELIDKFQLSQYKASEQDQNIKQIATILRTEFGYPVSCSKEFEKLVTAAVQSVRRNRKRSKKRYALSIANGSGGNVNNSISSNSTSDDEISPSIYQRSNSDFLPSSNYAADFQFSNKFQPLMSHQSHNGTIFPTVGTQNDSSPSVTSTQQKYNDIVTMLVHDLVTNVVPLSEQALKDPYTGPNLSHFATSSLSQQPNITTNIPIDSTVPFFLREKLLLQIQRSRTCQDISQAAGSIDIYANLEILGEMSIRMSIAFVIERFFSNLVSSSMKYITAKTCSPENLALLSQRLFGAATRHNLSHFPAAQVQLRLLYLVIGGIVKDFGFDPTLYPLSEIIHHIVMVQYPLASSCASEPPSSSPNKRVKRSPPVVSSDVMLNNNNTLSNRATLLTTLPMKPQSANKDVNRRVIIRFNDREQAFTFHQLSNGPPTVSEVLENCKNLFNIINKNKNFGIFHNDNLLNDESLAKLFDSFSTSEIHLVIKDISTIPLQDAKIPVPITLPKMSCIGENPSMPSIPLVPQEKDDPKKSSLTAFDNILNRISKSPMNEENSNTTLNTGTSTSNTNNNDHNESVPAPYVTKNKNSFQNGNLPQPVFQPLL
Experimental: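 Universal 'all 10-mer' protein binding microarrays (Agilent AMADID 015681) probed with GST-tagged S. cerevisiae TFs (full-length or DBD) made by in vitro transcription/translation (PURExpress), about 100-200 nM. Bound TF was detected with fluorescent anti-GST. Each ungapped 8-mer (which stands for itself and its reverse complement) is scored by the PBM enrichment score (E-score), a modified Wilcoxon-Mann-Whitney statistic from -0.5 to +0.5, computed with the Universal PBM Analysis Suite. Scale: above 0.35 generally sequence-specific binding.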

Sequence | PBM E-score
CAGCCCAA | 0.0901
CCCACTGC | 0.157
GGCCACGA | 0.0718
TAGCTCCA | -0.0103
AGTGGCGG | 0.134
CGAACCGA | 0.0202
TCGTGCCA | 0.0339
GTAACGAC | 0.0561
CATTCTTC | -0.104
TACCAAAA | -0.223
CACTAGCA | -0.0471
AGATACGA | 0.13
ATGGGCTG | 0.198
AATCACCA | 0.33
ACAGGCCC | -0.193
AACTAAAT | -0.0313
CCACTTTC | -0.129
CGGGATCC | 0.0185
CCGTGAAA | -0.0126
CTTTACTA | 0.11
AACTTGCA | -0.0527
GCCCCTGA | 0.16
ACGGTTTG | 0.0802
GTGAGCCA | 0.355
ATAAATAA | 0.00317

Sequence | PBM E-score
CAATGGAA | 0.0591
CCTCTTCA | -0.0067
ATAAGTAA | 0.00659
CTCTTAGA | -0.151
TCGTCACA | 0.0377
AGAAAAAC | -0.319
CCGGTCCC | -0.00652
ATTACGAG | 0.127
AATTAGCC | -0.0619
AGATTATG | 0.162
AGCGTGGG | -0.136
ACATCATA | 0.266
CCATCCCC | -0.00278
CACATGCG | 0.124
ACCCGTGG | -0.0504
ATCGATAA | 0.0524
CAATATGG | 0.114
AACCTACG | -0.169
GTTTTGGA | -0.0253
CTCGACAA | -0.0758
ACACGGAA | -0.0284
CAGAGCCA | -0.0622
ATCCTTAC | 0.068
ATAGATGA | 0.042
CGGGCAAA | -0.0237

Sequence | PBM E-score
AGGCTTTA | -0.229
GACGAAAA | -0.0135
AGTTAGTA | 0.137
ACTGCTAC | -0.114
AGCCGGCT | -0.0587
AGGATCTG | -0.0393
CTTAGCCC | -0.162
AGCATCGG | 0.00761
GGTTTCCA | -0.164
CGTTAGCA | 0.00713
CGTTCGTA | 0.135
ACGTACCG | -0.0333
GAATGATC | 0.128
AGGTACCT | -0.116
CCTGAATC | 0.0923
TATGGAGA | -0.137
GCTAAGAA | -0.0747
ACCATACA | 0.0461
CGTAAGAG | -0.136
GTTGTTAA | 0.0801
CTTAGCAC | -0.0691
GCTATAAA | -0.123
CAAGCCGG | 0.0801
TCGACTCA | 0.349
ACGCCTAT | -0.142

Sequence | PBM E-score
AAGCTTTC | -0.195
CGCGACCG | 0.17
GAGAGCGC | -0.202
ACGGGCGG | 0.013
TCAGCAAA | -0.0743
ATTTCCTA | 0.0418
AAGTTTCT | -0.113
ATCCGTCA | -0.0404
ATGTTACA | 0.17
CCAGATTA | 0.00015
ACTAGTTC | -0.0876
ACCCCTTG | -0.212
ATATACAG | 0.103
AAAAGTAC | -0.155
GGTTAGTA | 0.108
GCATCGTA | 0.0567
AGTTCGGG | 0.0123
GCAGTCTA | -0.0301
ATCTGCAG | 0.0125
GCAGCTAA | -0.106
GAAATTAC | -0.0807
CGCAGTAA | -0.104
GCGAACGC | -0.042
CAGCTTGC | -0.129
CACTGTTC | -0.0267

Sequence | PBM E-score
TAAGTTCA | -0.156
CTAGCAGC | -0.0636
GGCAGGGA | 0.0297
ACGCGACC | 0.0419
CAATCGCG | 0.1
TAACCCAA | 0.095
CGTCGAGC | -0.0366
TCATGGCA | 0.0755
CCCAATTC | 0.0325
AGTAAGGA | -0.11
ATGACTTC | 0.341
CGCAAGCC | 0.17
ACTTTCCT | -0.157
GACGGCAA | 0.0613
GTGACTTA | 0.259
ACGCCTGA | -0.0743
CATTTGGC | -0.0816
AAGGTAAG | -0.0663
TATGCGCA | -0.00407
GGCAAAGA | -0.0131
ACACGTCG | -0.155
GAGTGGCC | -0.0478
AATGGTTC | 0.212
AGTGCGTG | 0.177
GACCGAAC | 0.0587

Sequence | PBM E-score
ATGAGACA | 0.234
GCATCGCC | -0.137
CAATAAGC | -0.035
AGTAGTAC | 0.121
ATATGAGC | 0.122
GGCATACC | -0.118
AAGGTTAT | 0.0219
AACCGAGT | 0.0637
CAAAGCTG | -0.0775
CCTGCGTA | -0.0395
AACTGTTA | 0.00067
GGGGTCTA | -0.0418
GTATCCCA | -0.0357
CACTACTA | 0.125
ATTCGCAA | 0.0447
AAAGGCAA | -0.00942
CACCCATG | 0.184
ACAGAAAA | 0.0629
AGATCATA | 0.203
CCGCAAGA | 0.0543
AATATAGA | -0.0698
AAACTCCT | -0.191
GCATAGCA | -0.0925
AAGTTTAT | -0.0565
AGGTGCAC | -0.0699

Sequence | PBM E-score
GACCTTGC | -0.157
GTTACAGA | -0.144
ATCTCTCG | -0.0016
CCCACGCC | -0.112
ATACGAAT | -0.0149
TCGATTCA | 0.0773
CCTCATCA | 0.0489
GTAAAGAA | -0.159
CGAATGAC | 0.215
AAGAAGGC | -0.285
CGTAGCTC | 0.0681
CATTTAAG | -0.267
GACGCCTC | -0.0533
GGGAATTA | -0.252
CACTCTAA | 0.0466
ACCGTTAC | 0.0489
GCAGTTAC | -0.118
CATTATAG | 0.0846
CACTGTAC | -0.00349
CATAATGC | -0.0446
ACGTTGCT | 0.0258
GGCAGGAC | -0.134

Reference: the supplement of paper PMC3334620
